Test results published in the supplement of paper PMC7826260.
This is one part of the list. The data describe in vitro nicking of single-stranded DNA by Rep domains at 3 µM enzyme and 37 °C for 1 h; the strands have 90 letters, of which the middle is given. The score is log2 (uncut reads / reads without enzyme); uncut sequences lie near 0, cut ones below; no hit call is given. Because reads are shares of a total, they shift together; uncut strands gain when others are lost, and binding without cutting may add a little.

Experiments:
Test in all cases: uncleaved DNA left, log2 of reads against the no-enzyme library (log2 ratio); higher = less cleavage (more negative = more Rep cleavage of the k-mer); sequences stand for … in CTCGTCCG…ACCGGAGA
[1] = tested on: T1, Rep nickase domain of Muscovy duck circovirus
T1 sequence (Rep 1-111, printed without the tag): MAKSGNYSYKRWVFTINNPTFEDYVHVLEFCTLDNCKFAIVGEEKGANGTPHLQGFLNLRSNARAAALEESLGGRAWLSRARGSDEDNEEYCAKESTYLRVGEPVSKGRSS
Protocol: (§1)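 A pool of 90-nt single-stranded DNAs with seven random bases just before the constant AC of the nick site (name = the seven bases) was cut by 3 µM recombinant His6-SUMO-tagged Rep nickase domain (300 nM DNA, 50 mM HEPES pH 8.0, 50 mM NaCl, 1 mM MnCl2, 1 h, 37 °C, three replicates). Uncut DNA was amplified and sequenced.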

[2] = tested on: T2, Rep nickase domain of banana bunchy top virus
T2 sequence (Rep 1-94, printed without the tag): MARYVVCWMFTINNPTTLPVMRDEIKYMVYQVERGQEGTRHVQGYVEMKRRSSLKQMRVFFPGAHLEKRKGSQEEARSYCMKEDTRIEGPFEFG
Protocol: as §1

[3] = tested on: T3, Rep nickase domain of cabbage leaf curl virus
T3 sequence (Rep 1-116, printed without the tag): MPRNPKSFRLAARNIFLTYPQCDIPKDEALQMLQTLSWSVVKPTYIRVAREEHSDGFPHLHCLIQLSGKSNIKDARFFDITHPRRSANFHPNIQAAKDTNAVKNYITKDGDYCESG
Protocol: as §1

[4] = tested on: T4, Rep nickase domain of chickpea chlorotic dwarf virus
T4 sequence (Rep 1-124, printed without the tag): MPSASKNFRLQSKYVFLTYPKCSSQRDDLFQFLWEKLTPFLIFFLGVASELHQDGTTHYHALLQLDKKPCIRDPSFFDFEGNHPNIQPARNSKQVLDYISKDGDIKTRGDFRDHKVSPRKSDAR
Protocol: as §1

[5] = tested on: T5, Rep nickase domain of faba bean necrotic yellows virus
T5 sequence (Rep 1-98, printed without the tag): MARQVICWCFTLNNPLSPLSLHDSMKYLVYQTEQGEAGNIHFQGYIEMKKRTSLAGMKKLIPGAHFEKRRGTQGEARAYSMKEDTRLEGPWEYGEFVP
Protocol: as §1

[6] = tested on: T6, Rep nickase domain of maize striate mosaic virus
T6 sequence (Rep 1-117, printed without the tag): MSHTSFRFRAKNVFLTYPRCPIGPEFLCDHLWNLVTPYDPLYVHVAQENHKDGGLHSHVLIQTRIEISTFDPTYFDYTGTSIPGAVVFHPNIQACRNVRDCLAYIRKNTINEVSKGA
Protocol: as §1

[7] = tested on: T7, Rep nickase domain of porcine circovirus 2
T7 sequence (Rep 2-116, printed without the tag): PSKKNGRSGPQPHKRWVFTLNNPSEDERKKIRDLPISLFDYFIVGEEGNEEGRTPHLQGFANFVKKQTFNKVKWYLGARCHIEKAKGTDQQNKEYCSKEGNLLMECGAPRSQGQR
Protocol: as §1

[8] = tested on: T8, Rep nickase domain of tomato yellow leaf curl virus
T8 sequence (Rep 1-136, printed without the tag): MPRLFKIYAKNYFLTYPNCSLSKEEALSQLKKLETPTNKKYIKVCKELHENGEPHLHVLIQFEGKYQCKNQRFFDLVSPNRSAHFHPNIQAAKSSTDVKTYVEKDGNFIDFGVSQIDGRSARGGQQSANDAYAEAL
Protocol: as §1

[9] = tested on: T9, Rep nickase domain of wheat dwarf virus
T9 sequence (Rep 1-137, printed without the tag): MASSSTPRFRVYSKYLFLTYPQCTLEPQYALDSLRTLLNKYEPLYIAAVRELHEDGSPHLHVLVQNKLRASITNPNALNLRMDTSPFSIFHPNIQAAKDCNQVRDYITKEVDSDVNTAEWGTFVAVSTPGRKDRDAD
Protocol: as §1

Sequence	uncleaved DNA left (log2) [1]	uncleaved DNA left (log2) [2]	uncleaved DNA left (log2) [3]	uncleaved DNA left (log2) [4]	uncleaved DNA left (log2) [5]	uncleaved DNA left (log2) [6]	uncleaved DNA left (log2) [7]	uncleaved DNA left (log2) [8]	uncleaved DNA left (log2) [9]
CAGTGCA	0.0427	-0.0806	-0.598	-0.901	-0.0425	-1.12	-2.44	0.211	-0.0682
GGTCTGT	0.0116	0.0614	0.502	1.08	0.00578	1.63	0.0112	0.0202	0.072
GTCAACA	-0.00599	0.144	0.395	0.597	0.0719	1.72	0.0488	0.066	0.0597
GCCAACA	-0.0812	-0.0802	-0.0222	-0.981	-0.166	0.118	-0.02	-0.104	-0.0749
TCTTGCC	0.0217	-0.0705	-0.691	-0.685	0.0538	-1.25	0.0746	-0.0267	-0.0962
TTACCGT	-0.0773	-0.172	-0.508	-2.01	-0.0773	-1.06	-0.536	-0.145	-0.139
CTATGGG	0.0438	0.0965	-0.503	-0.317	0.0478	-1.05	0.185	0.0836	-0.192
TGTCTGC	0.0617	0.144	-0.0572	-0.23	0.136	-0.575	0.192	0.101	0.109
TTATAAA	-0.0272	-0.109	0.0743	0.0438	-0.105	-0.149	-0.014	-0.109	-0.0656
TCGCAGG	0.0286	0.126	0.217	0.77	-0.061	0.958	-0.0546	-0.074	-0.0538
ATGTTCA	0.0657	-0.00323	-0.0374	-1.18	0.137	-0.569	-0.461	0.0516	-0.0045
AACCCAG	-0.0678	0.139	-0.558	-0.542	0.0539	-0.936	-0.402	0.122	0.0596
AGTCTGC	-0.0514	0.0297	-0.168	0.211	-0.101	-0.104	0.105	-0.182	-0.0627
GCTATAT	0.112	-0.042	0.254	0.27	0.0926	0.321	-0.122	0.048	0.112
TATGCAC	0.0739	0.0983	-0.194	-0.399	0.228	-0.984	0.188	0.0542	0.00879
CGGCGTC	-0.09	-0.0341	-0.329	-0.0699	-0.0459	-0.435	0.0612	-0.0972	-0.0355
CTCAGCA	0.126	0.112	-0.272	-0.74	0.0459	-0.803	-0.0927	0.0751	0.076
TCGTTTG	0.0298	-0.0465	-0.292	-0.443	0.0526	-0.928	-0.058	-0.0451	-0.0401
TCAGGAA	0.0382	0.0155	0.326	1.26	0.0442	1.6	0.149	-0.166	0.00857
GCGGGGA	0.0889	0.0023	0.762	1.11	-0.00685	1.91	0.238	-0.0799	0.0747

Sequence	uncleaved DNA left (log2) [1]	uncleaved DNA left (log2) [2]	uncleaved DNA left (log2) [3]	uncleaved DNA left (log2) [4]	uncleaved DNA left (log2) [5]	uncleaved DNA left (log2) [6]	uncleaved DNA left (log2) [7]	uncleaved DNA left (log2) [8]	uncleaved DNA left (log2) [9]
GTAACCG	-0.0493	0.00981	-0.683	-1.13	-0.0385	-0.764	-0.0313	-0.0604	-0.0436
TGGATGC	0.0127	-0.0817	0.154	0.375	-0.0821	-0.249	0.152	0.0535	0.111
TGATAAA	-0.0221	0.0953	0.0619	0.0259	-0.0104	-0.176	-0.0989	-0.0833	-0.0533
CAGCAAA	0.0377	0.0797	0.0515	-0.312	0.161	-0.494	-0.0603	0.127	0.0922
TAAGTTG	0.168	0.00462	0.198	0.694	0.109	0.778	0.147	-0.0806	0.00676
TCTTCAT	0.0292	0.0818	0.165	-0.667	-0.0755	-0.311	-0.579	0.0574	0.116
CCCCATA	-0.145	0.00724	-0.201	-1.24	0.0134	-0.8	-0.216	0.0282	0.0541
AGGAGGC	0.00965	-0.00913	0.175	0.415	0.034	-0.107	0.225	-0.107	-0.000803
TCTCCAG	-0.0684	-0.193	-0.553	-0.859	-0.033	-1.16	0.126	-0.0827	-0.133
CCGCAAA	0.139	-0.112	0.116	0.0668	0.0338	-0.654	0.148	-0.127	0.062
GGATATC	0.0766	0.122	0.768	1.72	0.0649	2.09	0.239	0.0797	0.243
TAGGTGT	0.000268	-0.0448	0.08	-0.0207	-0.00937	0.501	-0.986	-0.109	-0.0266
GGAATCC	0.0828	0.117	0.483	1.31	0.0627	1.78	0.181	0.14	0.131
ACGTAGG	0.0401	0.0442	-0.338	-0.237	-0.0184	-1.02	0.0257	-0.0988	-0.0779
GGGGCGT	0.113	0.196	0.93	2.04	0.0897	2.29	0.293	0.056	0.226
TGCCTAA	-0.0532	0.0515	0.107	-0.15	-0.0164	-0.293	-0.0957	0.082	0.0373
GAACATG	-0.0346	0.0108	0.43	1.18	-0.0499	1.04	0.115	-0.0309	0.115
AACGTAC	0.0648	-0.036	-0.204	-0.238	0.17	-0.761	0.0477	-0.0088	0.0371
GCTCCCT	0.0546	0.11	0.136	-0.665	0.0648	0.309	-0.511	0.0626	0.135
CAGTATC	-0.123	-0.151	-0.0696	-0.514	-2.01	-0.653	-3.14	-0.212	-0.0663
